# Paper PMC4336329 (PLoS ONE, 2015)
# Screen size: about 310,000 compounds; about 14,000 (4.5%) showed an effect of 50% or more. Effects have a minus sign here. This is one part of the list.
# Target: human ether-à-go-go-related gene (hERG) potassium channel (human, UniProt Q12809)
# Experiment: primary screen, population patch clamp on CHO cells stably expressing hERG
# 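Further: peak tail current of the secondary pulse compared with the same well before compound.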
# human ether-à-go-go-related gene (hERG) potassium channel, sequence (Q12809 whole entry, looked up): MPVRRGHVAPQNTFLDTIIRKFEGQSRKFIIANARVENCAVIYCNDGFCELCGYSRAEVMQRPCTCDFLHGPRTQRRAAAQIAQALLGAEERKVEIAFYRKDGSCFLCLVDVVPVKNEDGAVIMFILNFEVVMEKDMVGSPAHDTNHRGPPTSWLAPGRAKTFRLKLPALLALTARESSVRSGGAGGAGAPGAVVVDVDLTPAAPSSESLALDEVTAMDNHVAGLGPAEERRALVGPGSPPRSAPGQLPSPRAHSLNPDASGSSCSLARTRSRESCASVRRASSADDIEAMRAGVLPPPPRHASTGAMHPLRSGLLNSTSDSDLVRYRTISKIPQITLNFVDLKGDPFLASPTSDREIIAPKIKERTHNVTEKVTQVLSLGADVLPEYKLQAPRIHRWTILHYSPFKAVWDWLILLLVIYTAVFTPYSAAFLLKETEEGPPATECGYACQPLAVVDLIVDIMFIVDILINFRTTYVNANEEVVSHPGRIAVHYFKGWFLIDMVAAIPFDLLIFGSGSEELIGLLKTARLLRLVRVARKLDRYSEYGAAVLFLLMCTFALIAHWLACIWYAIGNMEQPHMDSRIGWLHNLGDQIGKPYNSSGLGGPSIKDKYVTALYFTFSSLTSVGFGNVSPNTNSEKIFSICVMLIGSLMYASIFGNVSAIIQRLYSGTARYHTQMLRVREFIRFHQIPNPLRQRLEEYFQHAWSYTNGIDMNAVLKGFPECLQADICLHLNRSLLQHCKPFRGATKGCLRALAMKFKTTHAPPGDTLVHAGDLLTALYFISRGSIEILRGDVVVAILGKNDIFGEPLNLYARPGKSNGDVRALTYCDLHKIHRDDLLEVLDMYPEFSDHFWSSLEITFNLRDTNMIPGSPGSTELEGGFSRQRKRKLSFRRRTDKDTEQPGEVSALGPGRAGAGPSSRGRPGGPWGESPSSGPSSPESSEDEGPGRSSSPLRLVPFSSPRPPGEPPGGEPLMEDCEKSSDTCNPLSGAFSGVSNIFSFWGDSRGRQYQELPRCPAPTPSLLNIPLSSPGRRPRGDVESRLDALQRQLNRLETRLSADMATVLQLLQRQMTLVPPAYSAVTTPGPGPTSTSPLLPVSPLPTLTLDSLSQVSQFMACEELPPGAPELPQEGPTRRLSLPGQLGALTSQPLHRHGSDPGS
row,Compound,"hERG current change (%, negative = inhibition) at 10uM [%]"
1,COc1cc(C(=O)OCCC(C)C)cc(OC)c1O,-1.55
2,CC1CC(NC(=O)CC#N)CC(C)(C)C1 (centres unmarked),21.3
3,COc1ccccc1NC(=O)Cn1c(=O)c(N(C)C)c(N)n(C)c1=O,21.9
4,Cc1cc(C)cc(OCC(=O)OC/C(O)=C(\C#N)c2nc3ccccc3[nH]2)c1,15.9
5,CC(C)c1ccc(/C=C/C(=O)CCC(=O)O)cc1,17.9
6,CC1(C)CC(=O)C2=C(C1)OC(=O)CC2c1cccs1 (centres unmarked),-4.61
7,CN(CCC#N)C(=O)CSc1nnc(-c2c[nH]c3ccccc23)o1,4.76
8,COCCNC(=O)c1cn(Cc2c(F)cccc2Cl)nn1,18.7
9,CCc1cc(C(=O)c2ccc(OC)cc2)c(N)s1,-12.7
10,C#CCOc1ccccc1/C=N/NC(=O)c1ccccc1OCc1ccccc1,12.1
11,Cc1nc(C)c(-c2csc(NCc3ccco3)n2)s1,-10.9
12,COC(=O)c1ccc(N2CCOCC2)c(NC(=O)c2cccs2)c1,-5.27
13,CC(=O)N1CCOc2ccc(S(=O)(=O)Nc3ncccc3C)cc21,14
14,O=c1[nH]c2cccnc2n1-c1ccc([N+](=O)[O-])cc1,0.0443
15,S=C(NCCCNC(=S)Nc1ccccc1)Nc1ccccc1,8.91
16,CC(Sc1sc(=S)sc1SC(C)C(=O)O)C(=O)O (centres unmarked),-0.115
17,CC[C@H](C)[C@@H](CNC)NC[C@@H](Cc1ccc(O)cc1)NCC(C)(C)C,-1.92
18,Cn1c(=O)oc2cc(S(=O)(=O)N3CCC(C(=O)N4CCN(c5ccc(F)cc5)CC4)CC3)ccc21,-0.314
19,Cc1ccc(C2=NN(C(=O)c3cccs3)C(c3ccccc3O)C2)cc1 (centres unmarked),34
20,CC(=O)c1ccc(S(=O)(=O)N(C)CC(=O)N2CCCCCC2)cc1,17.8
21,Cc1ccc(C(=O)CCC(=O)Nc2ccccc2F)cc1,10.6
22,Cc1noc(C)c1COC(=O)c1cccc(S(=O)(=O)N2c3ccccc3CC2C)c1 (centres unmarked),3.14
23,CCOc1ccccc1C(=O)N(CN1CCCC1=O)c1ccc(C)c(Cl)c1,-5.99

row,Compound,"hERG current change (%, negative = inhibition) at 10uM [%]"
1,Cc1ccc(-c2c3c([nH]c(=S)c2C#N)CCCC3)o1,15.4
2,Nc1ccc2nc(COc3ccccc3)[nH]c2c1,11.2
3,CC1=C(C(=O)Nc2ccccn2)C(c2ccccc2)n2ncnc2N1 (centres unmarked),13.7
4,CCN(CC)c1ccc(/C=N/NC(=S)NC)c(O)c1,-4.91
5,CC(C)OC(=O)c1ccc(COC(=O)c2cccc(-c3nnc(-c4ccccc4)o3)c2)cc1,-4.8
6,CCCCN(C(=O)CCNC(=O)NC12CC3CC(CC(C3)C1)C2)c1c(N)n(CCC)c(=O)[nH]c1=O,-17.7
7,COc1ccccc1NC(=O)CN(Cc1ccco1)C(=O)c1ccc(-n2nc(C)cc2C)cc1,-51.2
8,CCOC(=O)C1(CCOc2ccccc2)CCN(Cc2ccc(OC)cc2)CC1,-75.1
9,CCOC(=O)Nc1nnc(-c2ccccc2OC)s1,-0.581
10,CSc1nc(-c2ccccc2)nc(N2CCN(C)CC2)c1C(C)=O,-26.1
11,O=C(c1ccco1)N1CCN(C(=O)c2oc(=O)c3ccccc3c2-c2ccccc2)CC1,-50.7
12,Nc1cc(N2CCCCC2)c([N+](=O)[O-])cc1Cl,-11.2
13,CC(C)NC(=S)NC(=O)/C=C/c1ccc(F)cc1,7.17
14,CCN(CC)CCCN(C(=O)c1ccc(Br)cc1)c1nc(-c2ccc(OC)cc2)cs1.Cl,-73.2
15,CCCCNC(=O)c1ccc2c(c1)N(C)C(=O)c1ccccc1S2,-27.6
16,C=C(C)c1cccc(C(C)(C)NC(=O)N2CCN(CC(N)=O)CC2)c1,11.3
17,COCCN(Cc1cc2ccc(C)cc2n2nnnc12)Cc1nnnn1C(C)(C)C,-41
18,Cc1cc(C)nc(-n2nc(C)c3c(=O)[nH]c(C(F)(F)F)nc32)n1,13.5
19,O=C(c1ccc(S(=O)(=O)NCC2CCCO2)cc1)N1CCc2ccccc21 (centres unmarked),-14.2
20,c1ccc(-n2ncc3c(NCc4ccccn4)ncnc32)cc1,0.854
21,COc1ccc(OCCOC(=O)CNS(=O)(=O)c2ccc(SC)c([N+](=O)[O-])c2)cc1,-39.2
22,CCC1(c2ccc(F)cc2)NC(=O)NC1=O (centres unmarked),16.7
23,CCCN1C(=O)S/C(=C\c2ccc(N3CCOCC3)o2)C1=O,-11.9

row,Compound,"hERG current change (%, negative = inhibition) at 10uM [%]"
1,COC(=O)C[C@H]1c2cc(C(F)(F)F)ccc2S(=O)(=O)N1C(C)(C)C,4.42
2,COc1cc(C)c(CN2CCC(n3nccc3NC(=O)C3CCOC3)CC2)cc1C (centres unmarked),-18.2
3,CCCN(C(=O)COC(=O)COc1c(C)cccc1C)c1c(N)n(Cc2ccccc2)c(=O)[nH]c1=O,15.5
4,CCC1(C)Cc2c(C#N)c(N)sc(=S)c2CO1 (centres unmarked),-4.32
5,COc1cc2c(cc1OC)CN(C(=S)Nc1ccc(Cl)cc1)CC2,20.1
6,Cc1ccc(C)c(Cn2c(CO)nc3ccccc32)c1,-6.43
7,O=C(NC1CC2CCCC(C1)N2Cc1ccccc1)c1cccc(Cl)c1 (centres unmarked),-57.9
8,O=c1c(-c2ccc(O)cc2)coc2cc(OC3OC(CO)C(O)C(O)C3O)cc(O)c12 (centres unmarked),5.05
9,Cc1ccccc1-c1ncc(CN2CCN(C3CCCC3)C(CCO)C2)cn1 (centres unmarked),-25.8
10,O=C(NCC(c1ccco1)N1CCOCC1)c1ccc(F)cc1 (centres unmarked),3.81
11,NNC(=O)c1cc2sccc2s1,13.2
12,C=CCN1C(=O)C2C(C(=O)NC)C3(C)C=CC2(O3)C1C(=O)NCc1ccc(OC)cc1 (centres unmarked),5.92
13,CCOc1ccc(/C=N/NC(=O)c2[nH]ncc2Br)c(O)c1,4.05
14,Cc1ccccc1N1CCN(C2=NC(=O)/C(=C\c3cccs3)S2)CC1,-10.8
15,CC(NC(=O)c1cccc(F)c1)C1CC2CCC1C2 (centres unmarked),-3.54
16,O=C1CSC(c2cccc([N+](=O)[O-])c2)N1c1c(F)cccc1F (centres unmarked),-2.64
17,Cc1ccc(CN2CCN(Cc3cccc(C)n3)CC2CCO)cc1 (centres unmarked),-40.2
18,O=C(NC1CCCCC1)C(c1cccnc1)N(C(=O)CCl)c1ccc(F)cc1 (centres unmarked),3.93
19,Cc1ccc(N2C(=O)C(CN3CCCC3)C2c2ccccc2)cc1 (centres unmarked),-78.5
20,Cc1ccc2[nH]cc(CCNC(=O)c3cccnc3)c2c1,-30.5
21,CCS(=O)(=O)N1Cc2ccccc2CC1C(=O)N(C)Cc1ccc(OC)cc1OC (centres unmarked),16.9
22,COC(=O)c1ccccc1NC(=O)CSc1nnc(COc2cccc(OC)c2)n1C,-35
23,Cc1cc([N+](=O)[O-])nn1CC(=O)N/N=C/c1ccccc1Br,7.44

row,Compound,"hERG current change (%, negative = inhibition) at 10uM [%]"
1,O=C(NCCC(=O)N(CCc1ccccc1)Cc1ccccc1)c1ccccc1Cl,-72.9
2,COc1cc2c(cc1OC)C(C)N(C(=O)c1sc(-c3cnccn3)nc1C)CC2 (centres unmarked),-4.52
3,COc1ccccc1CCNC(=O)CCn1c(=O)c2cccn2c2ccc(F)cc21,5.9
4,COc1ccc(-c2cc(C(=O)Nc3nc4c(C)cccc4s3)c3ccccc3n2)cc1OC,-5.91
5,CC1Sc2ccc(S(=O)(=O)CCC(=O)Nc3cc(F)ccc3F)cc2NC1=O (centres unmarked),-29.1
6,O=C(c1cccnc1)N1CCN(C/C=C/c2ccccc2)CC1,15.1
7,CC(Oc1ccc2c3c(c(=O)oc2c1)CCCC3)C(=O)NCCN1CCOCC1 (centres unmarked),59.8
8,c1cnc2c(OCc3nc4ccccc4[nH]3)cccc2c1,-0.178
9,Cc1ccc(S(=O)(=O)CCC(=O)c2cccc([N+](=O)[O-])c2)cc1,7.64
10,COc1ccccc1OCCNc1cc(N2CCCCC2)ccc1[N+](=O)[O-],8.25
11,COc1ccc(C)cc1NC(=O)CSc1nc(=O)n(CCCN2CCOCC2)c2c1CCCC2,-28.6
12,Cc1cccc(C)c1OCC(O)CNS(=O)(=O)c1ccccc1C(=O)N1CCCCC1 (centres unmarked),-10.9
13,Nc1nnc(SCc2nnc(-c3ccccc3)o2)s1,-1.84
14,CNC(=O)COC(=O)c1ccc(Cl)c(S(=O)(=O)N2CCCC2)c1,3.39
15,Cc1ccccc1NC(=O)CSc1nc(O)cc(=O)n1C,-1.28
16,CN(Cc1cnccn1)Cc1nc(Cc2ccccc2Cl)no1,7.22
17,O=C(CCc1ccccn1)N1CCCC(N2CCN(c3cccc(C(F)(F)F)c3)CC2)C1 (centres unmarked),-68.2
18,CCOC(=O)c1c(NC(=O)CN2CCOCC2)sc2c1CC(C)(C)OC2,-13.4
19,O=C(c1cc(-c2ccccc2)on1)N1CCN(c2ccccc2)CC1,15.9
20,O=C(CNC(=O)c1ccco1)OCC(=O)c1ccc([N+](=O)[O-])cc1,11.9
